Results as given in the supplement of paper PMC3334620.
The full ranking holds about 33,000 sequences; the median of “E-score (-0.5 to 0.5)” is about -0.032, and the highest 2% start at about 0.36. Some of the results follow.

What follows are sequences tested against T1, Sko1 (UniProt Q02100) (assay: PBM E-score (8-mer binding enrichment) (E-score (-0.5 to 0.5)); higher = stronger / more preferred TF binding; most listed sequences are background and not binding sites). Conditions: protein concentration: 200 nM; construct: GST-full length.
T1 sequence: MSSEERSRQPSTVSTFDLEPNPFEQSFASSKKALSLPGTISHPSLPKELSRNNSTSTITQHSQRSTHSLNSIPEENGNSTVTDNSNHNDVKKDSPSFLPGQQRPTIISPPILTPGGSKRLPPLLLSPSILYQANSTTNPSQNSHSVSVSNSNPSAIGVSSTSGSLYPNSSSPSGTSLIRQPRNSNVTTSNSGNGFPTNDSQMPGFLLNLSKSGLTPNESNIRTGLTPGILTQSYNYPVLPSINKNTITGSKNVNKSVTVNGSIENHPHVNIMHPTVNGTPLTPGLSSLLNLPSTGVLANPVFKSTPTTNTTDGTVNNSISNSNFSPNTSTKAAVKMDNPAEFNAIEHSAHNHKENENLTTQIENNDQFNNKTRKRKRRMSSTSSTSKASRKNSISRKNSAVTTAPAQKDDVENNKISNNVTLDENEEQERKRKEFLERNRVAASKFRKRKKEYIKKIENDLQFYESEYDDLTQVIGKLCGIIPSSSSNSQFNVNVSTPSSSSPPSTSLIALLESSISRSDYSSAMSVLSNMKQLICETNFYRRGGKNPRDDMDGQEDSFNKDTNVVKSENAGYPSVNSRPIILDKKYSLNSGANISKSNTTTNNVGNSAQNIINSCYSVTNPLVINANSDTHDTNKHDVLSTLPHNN
Outline: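 Universal all-10-mer Agilent arrays, fresh or stripped once, were converted to double-stranded form by primer extension. GST-tagged yeast transcription factors from PURExpress in vitro transcription/translation, full-length or DNA-binding domain only, were applied at about 100-200 nM and detected with fluorescent anti-GST. After masliner normalisation, the Universal PBM Analysis Suite scored each ungapped eight-base word together with its reverse complement by E-score.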

Sequence	PBM E-score
CAACATCG	0.185
GGCAACTA	-0.153
CACGCGGC	-0.144
CTCTGTTC	-0.183
CTAGAAAA	0.0764
ATGAGCTC	0.109
CAATACTC	0.117
CGATGGGC	-0.195
AAGGACAC	-0.0689
ACTGTCGC	-0.274
GGTAAAAA	0.0275
GCTAAAGA	0.099
TATCCAAA	0.156
TCTGATAA	-0.0319
GTCCTTTA	-0.126
ACCTCGTC	-0.0972
GGCGGGAC	-0.212
CGCGCCAG	-0.0558
GGCTTCGA	-0.109
CACAAAGA	-0.0193
AGGACCAC	-0.2
GATTCCAC	0.0919
ACGTAGAT	0.452
GGTGGAAA	-0.203
GTGCCTCA	-0.118

Sequence	PBM E-score
GGATAATA	0.126
GTCGCAAC	0.0039
CTAACATA	0.197
AAAGATTC	0.0819
AAGGTGAC	0.0942
GGCACGGA	-0.233
CTCTTGTA	-0.113
CCTCTCTA	-0.354
GGGTACAC	-0.108
AAAACCAC	0.144
GCGCGTGA	0.191
GACGCTTA	0.035
CTCCATAC	0.0106
ACACTAGG	-0.0781
GAAGCTCC	-0.251
CATACAGC	-0.206
CCCAAGCA	-0.117
GCTCCAGC	-0.2
GGGAGCAA	-0.287
GCCACGGC	-0.175
AGTCGTAA	0.231
GCCGGAAA	-0.149
CTAAGGAG	-0.236
CCCGTATC	-0.275
TAGTCACA	0.0679

Sequence	PBM E-score
GGTTGCAC	-0.106
GAGCCTCA	-0.349
GAATCTAA	0.121
CATCCTAC	-0.0257
AGCCACTG	-0.0844
AAAGGAAT	0.0299
AGCTGGCC	-0.143
GATAGGGC	-0.334
GCGATTTA	-0.0203
CCCCCGAA	-0.201
CTGGTTGC	0.0168
CAGTAGAC	0.139
GAATTAAC	0.252
GGTGGTTA	-0.0717
AACACAGA	0.111
CACGGCGC	-0.116
ACGGCTAT	-0.019
AAAATTGG	-0.0542
GGGCTCGA	-0.105
CCGTTGTC	0.0817
GAGCACGC	0.1
AAAGTCGA	-0.173
ACCGTCTA	-0.278
AACACGCT	-0.0355
AATCATAC	0.253

Sequence	PBM E-score
CTGTGTCC	-0.0444
ACTCTAGC	-0.198
CTTTTCTC	-0.011
ACTCGGTA	-0.073
AAGATCAG	-0.146
TAGCCCTA	-0.198
CCTATTCG	-0.222
CGCGCAGC	-0.0457
CTCTGATA	0.0155
CAAGTCTA	-0.0923
TAGGGCGA	-0.162
TAATGAGA	0.163
CCTGGTCC	-0.363
CCCTCCGA	-0.216
AATCTGAC	0.138
AGTGATTA	0.126
CATACTTA	0.0874
GGCTCTCA	-0.188
CGACTATC	-0.0391
ATAGAAAT	0.132
ATCCCCAA	-0.0184
AGGGTGGA	-0.198
ACTTACGA	0.309
ATAACCTC	-0.0134
CAGTGTAG	-0.0539

Sequence	PBM E-score
ATAGTATG	0.179
CACCCGCC	-0.0697
CCCTGGCA	-0.34
TAGGAGGA	-0.0884
ACCTCAAA	0.0158
GGAACTAC	-0.033
CGGGAAGC	-0.274
GAAAAACA	-0.00811
GCTTTGCA	-0.122
CTGGCGCA	-0.184
CTTACGGC	-0.277
AAACCGGA	-0.103
AACCTTTA	-0.0865
CCGTCCTC	-0.288
AACACCCC	-0.224
CTTTTAGA	0.0647
CCAAGTAA	0.133
GTGCCCAC	-0.0942
GACACAGC	-0.0494
CCCCCGCC	-0.431
AGAGTTAT	-0.071
GACGAGTA	0.174
AACGCTAG	-0.185
CCATCATC	0.0168
ACGTCTCT	0.313

Sequence	PBM E-score
CGATGTCA	0.275
AGAACGAG	0.0155
TCCAGGCA	0.0851
ATATCAAC	0.141
ATATATAT	0.235
GCTCACAA	-0.017
CGTCCAAC	0.147
ACCGCGTG	-0.0861
CTAGGCTC	-0.192
AAGACACA	0.0903
GTCCCGAA	-0.294
ACCGGGTA	-0.112
CAGCATGA	-0.0784
AAATATCT	-0.00788
AGTCGCAG	-0.204
TCCTACAA	0.0613
GGTTGGAA	-0.26
ACCAGGCT	-0.243
GCCCCGTA	-0.181
CAACCCAA	0.084
GGCCACTA	-0.0906
TGCCCACA	-0.164
ATGAGTAG	0.0656
CGAGACAG	-0.0122
ACGTTGTC	0.326

Sequence	PBM E-score
GCCCTAGA	-0.172
CATGAGCG	0.121
GACCTATC	-0.275
AATAAACT	0.0719
GAAAGTTA	0.221
AAGCACGC	0.141
ATGGTCCG	0.0419
CCCCCCGA	-0.293
GTCCTGCA	-0.184
ACATTTCG	0.137
CAAGAAAC	0.101
CGGTGTTA	-0.145
ATGCGGGC	-0.141
ACATCAGT	0.179
ATGCACGC	0.233
CGTACAAC	0.165
GATCGCCC	-0.171
ACTAGGTC	-0.0173
TCTTATCA	0.238
CGATTTAC	0.132
AATGTTTA	0.139
ATTACCCA	0.0535
CGACGGCC	-0.173
ACGAGCCG	-0.0783
ACAAGCTA	0.0493

Sequence	PBM E-score
TGAATTAA	0.235
CCTTCACC	-0.303
AGATTGGG	-0.00147
ACGGGGTG	-0.175
AAAACGCT	0.121
AGGAATTC	-0.187
ACCGTCCA	-0.257
CAACTATA	0.105
CACCGCGA	-0.0959
ATGCAGCA	-0.0878
CAACGGTG	-0.327
AAAATTTC	0.0871
ACGTCAAT	0.46
CCTCGGCG	-0.0614
AACGGTCG	-0.0357
AAGTCGAC	0.0592
AGGAGCCC	-0.142
TGGGCTAA	-0.139
AAAAAAAG	0.0989
AAAACACA	0.111
CCTCAGTC	-0.14
AAATGCTC	0.0109
CTTCTTAA	0.183
AGCAATTC	-0.00484
AGGGCGCG	-0.166

Sequence	PBM E-score
GATGAAAA	0.0883
CTTCAACA	0.0249
CGCCCGAA	-0.156
AAACTCAG	-0.0861
CCACCATC	-0.309
ATTCCATA	0.208
GGAGAAAC	-0.101
TCACCGGA	-0.0135
CCCCACAC	-0.153
CCCCTTTC	-0.318
ACATAGAT	0.0762
CGCGGCGC	0.0106
ATCGCTGA	-0.0744
CAAGAGAC	-0.257
ATGTGATG	0.0759
ATCAAAGC	-0.062
TAGCGAAA	0.16
TAGCTACA	0.13
ACAGCTGT	-0.245
